In all, about 410,000 compounds went through this assay and about 490 (0.12%) were called active. The shares of active, inactive and inconclusive entries below differ from those in the screen. Calls follow the shape of the dose curve; as a rule, active = well fitted inhibition curve with a large enough effect; inconclusive = small, poorly fitted or top-dose-only effect; inactive = flat fitted curve, though single readings scatter. Where the call is inconclusive, the potency comes from a doubtful curve fit.
Target: pyruvate kinase (Trypanosoma brucei) (UniProt Q57TT1)
Test: qHTS of Trypanosoma Brucei Inhibitors; also: nearly all actives have a fitted effect of over 50% in size
Details: TbPYK enzyme, Kinase-Glo Plus ATP luminescence, 45 min; series mostly up to 76.8 µM; activity, negative = inhibition: at the top concentration
Procedure, shortened: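 Luminescence from Kinase-Glo Plus, added after a 45-minute room-temperature reaction, served as the end-point read-out. The enzyme and substrate were preincubated with compound before ADP (130 uM final) initiated turnover. Concentration-effect curves came from normalized qHTS data.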
% is scaled to controls: 0 for no effect and ±100 for the full control effect; potency is read from the fitted curve at half-maximal effect; tags tell the direction and shape of the fitted curve.

SMILES | activity, negative = inhibition | Potency
Cc1ccc(NC(=O)C2CCCN2S(=O)(=O)c2cccc3nsnc23)c(Br)c1 (stereo not given) | inactive: 2.43% | –
CCC1(C)Cc2c(sc3nc4n(c(=O)c23)CCS4)CO1 (stereo not given) | – | inconclusive: 31.6 µM [inhibitor, single point]
C/C=C/c1ccc(OCC(=O)Nc2ccc(OC)c(OC)c2)c(OC)c1 | inactive: 1.02% | –
CCOC(=O)c1sc2ncn(CC(=O)Nc3cc(C)cc(C)c3)c(=O)c2c1C | inactive: 6.43% | –
Cc1ccc(-c2csc(=S)[nH]2)cc1 | – | inconclusive: 5.62 µM [inhibitor, partial curve]
FC(F)(F)c1ccnc(N2CCN(Cc3cnc(-c4ccccc4)[nH]3)CC2)c1 | inactive: -0.482% | –
CCOC(=O)CSc1nc2cc(OC)ccc2cc1C#N | inactive: -13% | –
O=C(O)c1ccc2c(c1)C(=O)/C(=C\c1ccco1)C2=O | – | inconclusive: 44.7 µM [inhibitor, single point]
Fc1ccc(/C=N/Nc2nccnc2Cl)cc1 | – | inconclusive: 28.2 µM [inhibitor, partial curve, poor fit]
CC(=NNC(=S)N1CCN(C2CCCCCC2)CC1)c1ccccn1 | – | inconclusive: 39.8 µM [inhibitor, partial curve, poor fit]
Cc1csc(Cn2c(CN(C)C)nc3ccccc3c2=O)n1 | inactive: -9.46% | –
Cn1c(=O)cc(SCC(=O)NCCc2ccc(Cl)cc2)c2cc(Cl)ccc21 | inactive: -1.37% | –
CC1Cc2nc(SCC(=O)N3CCCc4ccccc43)n(C)c(=O)c2S1 (stereo not given) | – | inconclusive: 35.5 µM [inhibitor, single point]
O=C1NC(=O)C(=Cc2ccc(OCC(=O)N3CCOCC3)cc2)C(=O)N1 | – | inconclusive: 35.5 µM [inhibitor, partial curve, poor fit]
Clc1ccccc1-c1nc(N/N=C/c2cccnc2)c2ccccc2n1 | inactive: -3.26% | –
Cc1ccc(-n2nc3c([n+]2[O-])CCc2c-3no[n+]2[O-])cc1 | inactive: 1.26% | –
C[C@@H]1CCCCO[C@@H](CN(C)S(=O)(=O)c2ccccc2)[C@@H](C)CN([C@H](C)CO)C(=O)c2cc(N(C)C)ccc2O1 | – | inconclusive: 25.1 µM [inhibitor, single point]
O=C(Nc1cccc(F)c1)NC1CCCCC1 | – | inconclusive: 0.794 µM [inhibitor, full curve, poor fit]
COC(=O)C1=C(C(=O)OC)SC2(S1)C(C(=O)OC)=C(C(=O)OC)Sc1c2ssc1=O | – | inconclusive: 20 µM [inhibitor, partial curve]
Fc1cccc(Cl)c1/C=N/n1c(-c2cccnc2)n[nH]c1=S | – | inconclusive: 44.7 µM [inhibitor, partial curve, poor fit]

— PubChem BioAssay AID624173 (National Center for Advancing Translational Sciences (NCATS), 2012)
